Test results published in PubChem BioAssay AID1347165 (National Center for Advancing Translational Sciences (NCATS), 2019).
About 5,700 (2.6%) of roughly 220,000 compounds were called active. Inconclusive results, whose numbers are uncertain, are shown with a selection of clear calls. The call rests on the fitted dose curve; in most records, active means well fitted inhibition curve with a large enough effect; inconclusive means small, poorly fitted or top-dose-only effect; inactive means no such curve, though single readings can be large or run the other way. Where the call is inconclusive, the potency comes from a doubtful curve fit.

Molecular target: Lysine-specific demethylase 5B (Homo sapiens) (UniProt Q9UGL1)
Assay: Primary screen for KDM5B Histone Demethylases FDH-coupled qHTS; further: nearly all actives have a fitted effect of over 70% in size; on activity change, negative = inhibition: 0% is about no effect
Settings: FDH-coupled NADH fluorescence (FDH is formaldehyde dehydrogenase); activity change, negative = inhibition: at 57.7 µM (top of the series) unless noted
Method in brief: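 Coupled FDH/NAD⁺ fluorescence readout. KDM5BΔAP 200 nM final; compound titration, 10 min RT preincubation; substrate mix 12.5 µM H3K4me3, 25 µM 2-OG, 50 µM Fe(II), 100 µM ascorbate, 0.25 mM NAD⁺, 0.25 U/mL FDH; ΔRFU over 30 min.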
Potency means the concentration at half of the fitted maximal effect; tags describe the fitted curve by direction and shape.

Sequence of UniProt Q9UGL1 (Q9UGL1 whole entry, looked up): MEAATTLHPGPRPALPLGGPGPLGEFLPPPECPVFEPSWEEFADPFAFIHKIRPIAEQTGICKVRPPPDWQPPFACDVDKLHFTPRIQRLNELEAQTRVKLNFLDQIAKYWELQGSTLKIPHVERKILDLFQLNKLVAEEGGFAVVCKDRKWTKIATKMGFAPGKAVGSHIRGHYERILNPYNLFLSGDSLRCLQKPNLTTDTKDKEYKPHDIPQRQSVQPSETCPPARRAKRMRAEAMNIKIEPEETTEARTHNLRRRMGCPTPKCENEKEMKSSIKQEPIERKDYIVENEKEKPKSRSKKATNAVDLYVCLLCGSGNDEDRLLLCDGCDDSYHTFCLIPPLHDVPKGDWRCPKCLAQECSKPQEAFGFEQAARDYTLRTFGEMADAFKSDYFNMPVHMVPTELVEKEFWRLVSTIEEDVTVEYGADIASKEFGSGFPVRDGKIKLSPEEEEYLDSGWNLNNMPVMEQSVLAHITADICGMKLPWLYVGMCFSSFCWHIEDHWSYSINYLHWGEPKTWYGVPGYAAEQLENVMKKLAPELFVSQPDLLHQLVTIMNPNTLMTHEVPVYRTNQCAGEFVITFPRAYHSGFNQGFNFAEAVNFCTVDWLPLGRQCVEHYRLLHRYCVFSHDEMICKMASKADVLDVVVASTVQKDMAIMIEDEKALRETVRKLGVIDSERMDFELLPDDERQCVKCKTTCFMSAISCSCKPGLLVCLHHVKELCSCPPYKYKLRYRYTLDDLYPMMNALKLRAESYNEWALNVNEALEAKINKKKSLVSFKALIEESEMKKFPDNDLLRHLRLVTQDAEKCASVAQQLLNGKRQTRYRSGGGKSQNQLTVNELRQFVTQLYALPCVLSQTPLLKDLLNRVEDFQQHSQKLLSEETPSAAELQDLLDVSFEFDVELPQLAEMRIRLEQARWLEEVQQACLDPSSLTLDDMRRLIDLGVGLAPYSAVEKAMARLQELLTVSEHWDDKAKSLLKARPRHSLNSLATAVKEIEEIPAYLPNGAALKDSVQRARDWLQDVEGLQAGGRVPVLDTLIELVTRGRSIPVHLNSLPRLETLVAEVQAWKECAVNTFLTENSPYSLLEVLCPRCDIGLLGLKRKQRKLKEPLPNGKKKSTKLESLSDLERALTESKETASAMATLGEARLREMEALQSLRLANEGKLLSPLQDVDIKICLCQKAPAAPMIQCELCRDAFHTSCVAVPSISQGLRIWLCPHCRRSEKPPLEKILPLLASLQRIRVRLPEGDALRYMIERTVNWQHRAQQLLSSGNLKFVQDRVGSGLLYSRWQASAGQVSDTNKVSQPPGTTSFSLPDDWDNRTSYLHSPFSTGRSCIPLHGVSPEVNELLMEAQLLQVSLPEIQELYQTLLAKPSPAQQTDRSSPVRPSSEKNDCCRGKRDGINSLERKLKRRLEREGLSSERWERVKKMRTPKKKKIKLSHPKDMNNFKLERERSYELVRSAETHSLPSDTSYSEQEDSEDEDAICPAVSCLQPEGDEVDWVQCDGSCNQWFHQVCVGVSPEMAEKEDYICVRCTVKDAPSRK

**Q.** How did the Potency turn out when `COc1ccccc1-c1nc(C(=O)NCCc2ccc(Cl)cc2)n2ccccc12` was run?
**A.** active: 79.4 µM

**Q.** Which Potency does the source give for `CCOc1ccc(N2C(=O)c3n[nH]c(-c4ccco4)c3C2c2cccnc2)cc1` (stereo not drawn) here?
**A.** inactive

**Q.** `COCCN1C(=O)[C@H]2CC[C@@H]1CN(c1ncnc3sc(C)c(C)c13)C2` was tested. Which Potency did it give?
**A.** inactive

**Q.** Which Potency does the source give for `Cc1nc2cc(NC(=O)c3cccc(S(C)(=O)=O)c3)ccc2o1` here?
**A.** inactive

**Q.** `COc1ccccc1-c1ccc2c(n1)CN(CC(=O)N1CCCC1)C(=O)CO2` was tested. Which Potency did it give?
**A.** inconclusive: 28.2 µM [inhibitor, partial curve, poor fit]

**Q.** How did the Potency turn out when `Fc1ccccc1-c1nnc([C@H]2CCN(C3CCOCC3)C2)o1` was run?
**A.** inactive

**Q.** For `N#Cc1nccnc1S(=O)(=O)c1cccs1`, which Potency is on record?
**A.** inconclusive: 10 µM [inhibitor, partial curve, poor fit]

**Q.** With `COc1ccc(-c2noc(CC3CCN(C(=O)Cc4ccsc4)CC3)n2)cc1` as the compound, how does the Potency read?
**A.** inactive

**Q.** `COc1ccc(Cc2nc3ccc(C(=O)NCCCN4CCN(C)CC4)cc3o2)cc1` was tested. Which Potency did it give?
**A.** inconclusive: 44.7 µM [inhibitor, single point]

**Q.** `CCN(Cc1nccn1C)C(=O)c1ccc(N2CCSCC2)nc1` was tested. Which Potency did it give?
**A.** inconclusive: 20 µM [inhibitor, partial curve, poor fit]

**Q.** Which Potency does the source give for `C=CCNC(=O)c1cc(-c2ccc(OC)cc2)nc2ccc(C(C)C)cc12` here?
**A.** inconclusive: 11.2 µM [inhibitor, partial curve, poor fit]

**Q.** For `O=C(c1ccc2c(c1)OCCO2)N(Cc1cccnc1)c1nc2c(F)cc(F)cc2s1`, which Potency is on record?
**A.** inconclusive: 28.2 µM [inhibitor, partial curve, poor fit]

**Q.** With `O=S1(=O)c2ccc(N3CCSCC3)cc2Oc2ccccc2CN1Cc1cn(Cc2ccc(C(F)(F)F)cc2)nn1` as the compound, how does the Potency read?
**A.** inconclusive: 22.4 µM [inhibitor, single point]

**Q.** Which Potency does the source give for `Cc1nc(NCCC(C)C)sc1C(=O)Nc1ccccc1` here?
**A.** inactive

**Q.** With `Cc1nc(N2CCCC2)ncc1-c1cc(=O)[nH]c(N2CCc3ccccc3C2)n1` as the compound, how does the Potency read?
**A.** inactive

**Q.** `O=C1CCC2(CNC(=O)c3ccc4ncccc4c3)CCCC=C2N1` (stereo not drawn) was tested. Which Potency did it give?
**A.** inactive

**Q.** Which Potency does the source give for `CCc1cccc(NC(=O)c2oc3ccc4c(c3c2C)C(=O)CC(C)(C)O4)c1` here?
**A.** inconclusive: 28.2 µM [inhibitor, single point]

**Q.** `COc1cccc(CN2C(=O)C3(SCC(=O)N3c3ccc(C(C)C)cc3)c3ccccc32)c1` (stereo not drawn) was tested. Which activity change, negative = inhibition did it give?
**A.** inconclusive: -30.5% [inhibitor]

**Q.** How did the Potency turn out when `Cn1cc(CN2C[C@@H](F)[C@@H](OCc3nc4ncccc4[nH]3)C2)c2ccccc21` was run?
**A.** inconclusive: 35.5 µM [inhibitor, partial curve, poor fit]

**Q.** With `COC(=O)[C@@H]1Cc2ncn(Cc3ccc(Cl)cc3)c2CN1S(C)(=O)=O` as the compound, how does the Potency read?
**A.** inconclusive: 28.2 µM [inhibitor, partial curve]

**Q.** With `Cc1ccccc1C(=O)NC(NC(=O)c1ccccc1C)c1ccc(Br)cc1` as the compound, how does the Potency read?
**A.** inactive

**Q.** How did the Potency turn out when `Cc1ccc2nc(-c3ccc(NC(=O)C4CC4)cc3)oc2c1` was run?
**A.** inactive

**Q.** `CCNc1c(NC(=O)Nc2ccc(Br)cc2F)c(=O)oc2ccccc12` was tested. Which Potency did it give?
**A.** inactive

**Q.** For `COC(=O)c1ccc(Cn2nc(-c3ccc(C)cc3)ccc2=O)cc1`, which Potency is on record?
**A.** inconclusive: 35.5 µM [inhibitor, single point]

**Q.** `Cc1cc(=O)oc2cc(OCC(=O)NC(C)C34CC5CC(CC(C5)C3)C4)ccc12` (stereo not drawn) was tested. Which Potency did it give?
**A.** inconclusive: 22.4 µM [inhibitor, partial curve, poor fit]

**Q.** For `COc1cc2c(cc1OC)CN(CC(=O)N1N=C(c3cccs3)CC1c1cccs1)CC2` (stereo not drawn), which Potency is on record?
**A.** inconclusive: 22.4 µM [inhibitor, partial curve, poor fit]

**Q.** For `FC(F)Oc1ccccc1CN(CC1CCN(C2CCCC2)CC1)CC1CCCO1` (stereo not drawn), which Potency is on record?
**A.** inactive

**Q.** Which Potency does the source give for `Cc1ccccc1NC(=O)COC(=O)c1cccc2c(=O)c(C)c(-c3ccccc3)oc12` here?
**A.** inactive

**Q.** With `Cc1ccc2c(c1)c(-c1ccccc1)c(-c1ccccc1)n2CCC#N` as the compound, how does the Potency read?
**A.** inconclusive: 1.78 µM [inhibitor, full curve, poor fit]

**Q.** Which Potency does the source give for `CSc1nc(O)c(C(c2ccc(OC(C)C)cc2)c2c(O)nc(SC)[nH]c2=O)c(=O)[nH]1` here?
**A.** inconclusive: 25.1 µM [inhibitor, partial curve, poor fit]

**Q.** Which Potency does the source give for `COc1ccc(C(=O)N2CC[C@](C)(O)C(C)(C)C2)cc1Cl` here?
**A.** inactive

**Q.** Which Potency does the source give for `O=C(Nc1ccc(-c2nc3cc(Cl)ccc3o2)cc1)C(F)(F)F` here?
**A.** inconclusive: 15.8 µM [inhibitor, partial curve, poor fit]

**Q.** How did the Potency turn out when `Cc1cccc(Cn2c(SCC(=O)Nc3ccccc3)nc3c2c(=O)n(C)c(=O)n3C)c1` was run?
**A.** inactive

**Q.** With `COc1ccc(C(=O)N[C@@H]2CCC[C@@H]2C(=O)N2CCCC2)cc1` as the compound, how does the Potency read?
**A.** inactive

**Q.** For `COc1ccc2oc(-c3ccccc3)c(C(=O)Nc3ccc(N(C)C(C)=O)cc3)c2c1`, which Potency is on record?
**A.** inconclusive: 39.8 µM [inhibitor, single point]

**Q.** `CN(C)C[C@@H]1CN(S(C)(=O)=O)C[C@H]1NC(=O)c1nccc2ccccc12` was tested. Which Potency did it give?
**A.** inconclusive: 25.1 µM [inhibitor, partial curve]

**Q.** Which Potency does the source give for `Cc1cc(C(=O)OCc2cccnc2)c2ccccc2n1` here?
**A.** inconclusive: 31.6 µM [inhibitor, partial curve, poor fit]

**Q.** Which Potency does the source give for `CCCCOc1cccc(C2C(C(=O)c3ccc(C)o3)=C(O)C(=O)N2c2nnc(C)s2)c1` (stereo not drawn) here?
**A.** inconclusive: 28.2 µM [inhibitor, single point]

**Q.** Which Potency does the source give for `Cc1c(CC(=O)O)c(=O)oc2cc(OCc3nn[nH]n3)ccc12` here?
**A.** inconclusive: 28.2 µM [inhibitor, partial curve, poor fit]

**Q.** Which Potency does the source give for `CCC1CCc2nc3sc(C(=O)Nc4cccc(C(F)(F)F)c4)c(N)c3cc2C1` (stereo not drawn) here?
**A.** inconclusive: 6.31 µM [inhibitor, partial curve, poor fit]

**Q.** Which Potency does the source give for `CCc1nn2c(=O)cc(COC(=O)c3ccc(NC(=O)C4CCCCC4)cc3)nc2s1` here?
**A.** inconclusive: 11.2 µM [inhibitor, partial curve, poor fit]

**Q.** `O=C(/C=C/c1cccc2c1OCCCO2)c1cccnc1` was tested. Which Potency did it give?
**A.** inconclusive: 39.8 µM [inhibitor, single point]

**Q.** How did the Potency turn out when `Cc1cc(C)c(C)c(S(=O)(=O)N2CCN(C(C)c3nc4ccccc4c(=O)[nH]3)CC2)c1C` (stereo not drawn) was run?
**A.** inactive
